Source: PubChem BioAssay AID1508642 (National Center for Advancing Translational Sciences (NCATS), 2021)
Hit rate of the full screen: of about 43,000 compounds, about 200 (0.47%) were called active. Another 12% or so got no clear call; they are omitted. Calls come from the whole dose curve; as a rule, active = well fitted cell-killing curve with a large enough effect; inconclusive = small, poorly fitted or top-dose-only effect, or effect the other way; inactive = flat fitted curve, though single readings scatter. The list shows a part of the results.

Experiment: Cell viability qHTS assay in S16 Pmp22-F2sN cells; note: nearly all actives have a fitted effect of over 65% in size
Conditions: S16 Pmp22-F2sN Schwann cells (luciferase reporters placed in the Pmp22 gene) viability, CellTiter-Glo, 24 h; series mostly up to 57.5 µM; activity change, negative = cytotoxicity: at the top concentration
In short: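 Luminescence from CellTiter-Glo, read by CCD camera after a 15 min room-temperature incubation, served as the viability signal. Reporter Schwann cells (S16 Pmp22-F2sN) had been treated with pin-transferred compounds for 24 h at 37C.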
% is set by controls: 0 for no effect and ±100 for the full control effect.

Compound	activity change, negative = cytotoxicity
COc1cccc(NC(c2nnc(-c3ccccc3)o2)c2ccc(F)cc2Cl)c1 (configuration not stated)	inactive: 4.96%
Cc1ccccc1Cn1c(=O)n(Cc2ccco2)c(=O)c2oc3ccccc3c21	inactive: 4.23%
O=C(c1ccc2c(c1)CCN2S(=O)(=O)c1ccc(Cl)cc1)N1CCN(c2ccccc2F)CC1	inactive: -4.56%
CC(C)N(Cc1ccccc1)C(=O)c1cc2ccc3cccnc3c2[nH]1	inactive: -26%
CCC(CC)C(=O)Nc1ccc(OCc2cc(=O)n3ccc(C)cc3n2)cc1	inactive: 7.45%
CCOC(=O)C1CCN(C(=O)c2nn(-c3ccc(C)cc3)c(=O)c3c2c2ccccc2n3C)CC1	inactive: -3.84%
CCOc1ccccc1N1CC(c2nc3ccccc3n2CCCOc2ccccc2)CC1=O (configuration not stated)	inactive: 6.09%
Cc1cc(OC(C)C(=O)N2CCN(CCc3ccccn3)CC2)ccc1Cl (configuration not stated)	inactive: 13.8%
Cc1nc2c(c(SCC(=O)Nc3ccccc3C(F)(F)F)n1)CCC2	inactive: 2.1%
Cc1c(F)cccc1NS(=O)(=O)c1cccs1	inactive: -5.69%
Cc1c(C(=O)Nc2cccc(F)c2)sc2nc(-c3cc4ccccc4oc3=O)[nH]c(=O)c12	inactive: 4.43%
CN(C1CCCCC1)S(=O)(=O)c1ccc(F)c(C(=O)Nc2ccc(C(F)(F)F)cc2)c1	inactive: -0.324%
COc1ccc(NC(=O)c2c(NCc3cccs3)sc3c2CCCCC3)cc1	inactive: 6.65%
Cc1ccc(-n2nc(C)c3c(C)cc(=O)n(CC(=O)Nc4ccc(C(C)C)cc4)c32)cc1	inactive: 20.6%
CCc1ccc(NC(=O)C(=O)NCCc2sc(-c3ccc(OC)c(OC)c3)nc2C)cc1	inactive: 10.1%
CC1CCCCN1C(=O)c1ccc2c(c1)N(Cc1ccc(Cl)cc1)C(=O)c1ccccc1S2=O (configuration not stated)	inactive: -17.8%
COc1cc(OC)cc(C(=O)NCCc2csc(-c3cccc(C)c3)n2)c1	inactive: -7.1%
COc1ccccc1Cn1ccn(CC(=O)Nc2c(C)cc(C)cc2C)c(=O)c1=O	inactive: -3.11%
Cc1nnc(N2CCN(c3ccc(Cl)cc3)CC2)c2c1nnn2Cc1ccc(F)cc1	inactive: -0.646%
CC(C)C(=O)NC1CC(=O)N(c2ccc3c(c2)OCCO3)C1 (configuration not stated)	inactive: -7.06%
COc1cccc(C(c2sc3nc(-c4ccco4)nn3c2O)N2CCCC2)c1 (configuration not stated)	inactive: 10.4%

Compound	activity change, negative = cytotoxicity
CCc1cccc(NC(=O)c2cc(-c3ccccc3)n[nH]2)c1	inactive: 0.513%
CCOC(=O)c1sc2ncn(CC(=O)Nc3cccc(C)c3)c(=O)c2c1C	inactive: 16.5%
CCOC(=O)c1[nH]c2ccccc2c1NC(=O)c1c(F)cccc1F	inactive: 12.8%
O=C(NCc1ccccc1Cl)c1ccc2c(c1)N(Cc1ccccc1)C(=O)c1ccccc1S2	inactive: 10.5%
Fc1ccccc1N1CCN(c2nnc(C(F)(F)F)c3nnn(Cc4ccccc4)c23)CC1	inactive: -0.606%
O=C(Cn1c(SCCOc2ccccc2Cl)nc2ccccc21)N1CCOCC1	inactive: -13.6%
COc1ccc2c(CNCc3ccco3)c(C(=O)O)n(Cc3ccc(F)cc3Cl)c2c1	inactive: 14.6%
CN(C)S(=O)(=O)N(CC(=O)Nc1ccc(Br)cc1F)c1ccccc1	inactive: 1.23%
COc1ccc(CCNc2ncnc3c2nnn3C)cc1OC	inactive: -12.1%
CCc1ccc(NC(=O)CSc2nc(-c3ccccc3)no2)cc1	inactive: -1.03%
Cc1ccc(-n2c3c(c(=O)[nH]c2=O)C(NS(=O)(=O)c2ccc(Cl)cc2)(C(F)(F)F)C(=O)N3)cc1 (configuration not stated)	inactive: -1.06%
NC(=O)C1CCN(c2ncnc3c2cnn3-c2ccccc2)CC1	inactive: 0.0855%
O=c1c2oc3ccccc3c2n(Cc2ccc(Cl)cc2)c(=O)n1Cc1ccc2c(c1)OCO2	inactive: 2.49%
Fc1cccc(NCc2ccccc2-c2nnc(-c3ccccc3Cl)o2)c1	inactive: 6.27%
CCC(C)NS(=O)(=O)c1ccc(N2CCCCS2(=O)=O)cc1 (configuration not stated)	inactive: -6.02%
COc1ccc(C)cc1NC(=O)C1CCCN(S(=O)(=O)c2ccc3c(c2)CCCN3C(C)=O)C1 (configuration not stated)	inactive: 0.876%
Cc1ccc(C(=O)Nc2ccc(C(=O)O)cc2)cc1S(=O)(=O)Nc1ccccc1	inactive: -2.85%
CCOCCCNC(=O)CN1C(=O)c2cccnc2Sc2ccccc21	inactive: -1.4%
CCCCNC(=O)CCCN1C(=O)CCn2nc(-c3cccn3C)cc21	inactive: -26.7%
COc1cccc(NC(=O)Cn2c(=O)n(-c3cccc(OC)c3)c(=O)c3sc4ccccc4c32)c1	inactive: 0.599%
Cc1ccc(Cl)cc1N1CCN(C2(c3ccccc3)C(=O)c3ccccc3C2=O)CC1	inactive: 10.2%

Compound	activity change, negative = cytotoxicity
COCCNC(=O)CSc1nc2cc3c(cc2c(=O)n1CCCC(=O)NCCc1ccc(OC)c(OC)c1)OCO3	inactive: 2.57%
COc1cc(NC(=O)CN2C(=O)c3ccccc3Sc3ccc(C(=O)N4CCCC4)cc32)cc(OC)c1	inactive: 0.655%
CCOC(=O)c1ccccc1NC(=O)CN1CCCN(Cc2cc(C)ccc2C)S1(=O)=O	inactive: -5.26%
Cc1ccc(Cl)cc1NC(=O)COC(=O)CC(C)(C)CC1=NS(=O)(=O)c2ccccc2N1	inactive: -7.94%
O=C(NCCc1ccccc1)C(=O)NCC(c1ccco1)S(=O)(=O)c1cccs1 (configuration not stated)	inactive: -6.42%
COc1ccc(-c2nc(CSc3nncn4c3cc3oc(C)cc34)c(C)o2)cc1	inactive: -0.772%
Cc1ccccc1NC(=O)c1ccc(F)c(S(=O)(=O)N2CCN(c3ccccc3F)CC2)c1	inactive: -5.29%
Cc1ccc(-n2nnc(-c3nc(-c4cccs4)no3)c2N)cc1C	inactive: 2.75%
Cc1oc2ncnc(N3CCCCC3)c2c1C(=O)NCC1CCN(Cc2cccc(F)c2)CC1	inactive: -0.865%
CCOC(=O)c1[nH]c2ccccc2c1NC(=O)c1ccccc1F	inactive: -20.2%
COc1cc(NS(=O)(=O)c2ccc(NC(=O)c3cccc(F)c3)cc2)nc(OC)n1	inactive: -2.19%
Cc1ccccc1NC(=O)c1ccc2[nH]c(C)c(C)c2c1	inactive: -8.53%
CCC1CN(S(=O)(=O)c2cc(-c3cc(C)no3)ccc2C)c2cc(Cl)ccc2O1 (configuration not stated)	inactive: -2.49%
COc1cc(NC(=O)CC2C(=O)OCCN2Cc2ccccc2)cc(OC)c1 (configuration not stated)	inactive: -0.175%
Cc1c(C(=O)NCc2ccc(Cl)cc2)sc2nc3n(c(=O)c12)CCCCC3	inactive: -28.3%
Cc1c(Cl)cccc1NC(=O)Cn1c(=O)n(Cc2ccco2)c(=O)c2sc3ccccc3c21	inactive: 0.627%
CCc1nn2c(-c3ccccc3OC)ccnc2c1-c1ccccc1	inactive: 22.6%
O=C(Nc1ccc(C(=O)OCc2cc(=O)n3c4c(sc3n2)CCCC4)cc1)c1ccc(F)cc1	inactive: -7.41%
CCCc1nn2c(=O)cc(COC(=O)c3cccc(NC(=O)c4cccs4)c3)nc2s1	inactive: 16.9%
COc1ccc(C(=O)NCC(c2cccnc2)N2CCN(c3ccccc3)CC2)cc1 (configuration not stated)	inactive: -2.51%
